How the values were obtained:
[1] = test system: in vivo thrombosis potential; experiment: Carotid artery FeCl exposure in vivo thrombosis model; parameters: species or system mice
[2] = Plasma TMAO in mice on chow or choline diet with or without ASA in drinking water; format: in vivo; conditions: in both diets (chow and choline); p<0.05 in each diet
microbial TMA lyase = experiment: TMA lyase activity of Proteus mirabilis (PM) lysate; format: biochemical; conditions: PM lysate, d9(trimethyl)choline as substrate, physiological range of ASA
Protocol: Using PM lysate (PM that is lysed in a French press to break open the cell wall and release enzyme contents) as the enzyme source, the TMA lyase activity (TMA producing activity) was examined in incubations with either d9(trimethyl)choline as substrate, or […] (GPC) as substrate. […] A further examination of the impact of ASA on TMA lyase activity by PM lysate was undertaken. Three mg of PM lysate was incubated with 25 uM choline and 25 uM choline(d9) in 2 ml PBS at 37 C for 20 hours. In FIG. 7, the dotted lines at 81 mg and 320 mg ASA represent reported steady state plasma levels of aspirin reported at those doses in human subjects. […] In light of this, in some embodiments, enteric coated aspirin or aspirin derivatives that have delayed absorption may be employed to treat disease since they would dissolve in the intestines past the stomach, such that the level of ASA or derivative delivered to the gut lumen will be higher. There exist even longer delayed release formulations of medications that could also be used.

SMILES | prothrombotic phenotype ([1]; ASA added to the choline diet) | time to blood flow cessation ([1]; choline diet+ASA group relative to control (chow and no ASA)) | reduction in TMAO level on addition of ASA [2] | TMA production from substrate (microbial TMA lyase) | time to blood flow cessation ([1]; choline diet alone, p<0.0001)
CC(=O)Oc1ccccc1C(=O)O [ASA, acetylsalicylic acid] | attenuates the extent of prothrombotic phenotype | no difference | approx. 2 fold | inhibited TMA production | –
C[N+](C)(C)CCO [choline] | – | – | – | – | reduces the time to blood flow cessation

— patent US20160089386A1, “TREATING AND PREVENTING DISEASE WITH TMA AND TMAO LOWERING AGENTS” (The Cleveland Clinic Foundation, priority 2014, published 2016)
